From US20110039874A1 (Northeastern University, priority 2007, published 2011)

Columns and labels:
[1] = target: T1, Monoacylglycerol lipase (MGL) (Rattus norvegicus, UniProt Q8R431); conditions: 100 µM
T1 sequence (Q8R431 1-303): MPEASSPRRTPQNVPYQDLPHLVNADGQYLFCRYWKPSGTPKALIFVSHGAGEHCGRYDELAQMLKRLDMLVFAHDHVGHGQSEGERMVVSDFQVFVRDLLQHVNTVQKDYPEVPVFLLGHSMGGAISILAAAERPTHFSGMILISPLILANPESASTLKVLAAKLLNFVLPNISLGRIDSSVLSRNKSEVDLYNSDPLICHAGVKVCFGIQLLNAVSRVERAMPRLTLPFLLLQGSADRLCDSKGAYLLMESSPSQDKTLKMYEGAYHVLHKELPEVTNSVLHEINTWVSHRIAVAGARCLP

[2] = target: T1, Monoacylglycerol lipase (MGL); test: biochemical

Structure (SMILES) | inhibition [1] | IC50 [2] | Ki [2]
O=C(CCCCOc1ccc(OCc2ccccc2)cc1)C(F)(F)F [Compound 23.2, 1,1,1-Trifluoro-6-[4-(Benzyloxy)phenoxy]-2-hexanone] | 64% | 86.2 µM | 23.7 µM
O=C(CCCCCOc1cccc(OCc2ccccc2)c1)C(F)(F)F [Compound 23.7, 1,1,1-Trifluoro-7-[3-(Benzyloxy)phenoxy]-2-heptanone] | 38% | 329 µM | 66.7 µM
O=C(CCCCCOc1ccc(OCc2ccccc2)cc1)C(F)(F)F [Compound 23.3, 1,1,1-Trifluoro-7-[4-(Benzyloxy)phenoxy]-2-heptanone] | 61% | 109 µM | 30 µM
O=S(=O)(F)CCCCOc1ccccc1 [Compound 17, 4-Phenoxybutylsulfonyl fluoride] | 26% | 915 µM | 298 µM
CCCCCCC(C)(C)c1cc(O)c(-c2ccc(C(=O)C(F)(F)F)cc2)c(O)c1 [Compound 40.1, 1-(2′,6′-dihydroxy-4′-(2-methyloctan-2-yl)biphenyl-4-yl)-2,2,2-trifluoroethanone] | 85% | 36 µM | 9 µM
O=C(CCCCCOc1ccccc1OCc1ccccc1)C(F)(F)F [Compound 23.10, 1,1,1-Trifluoro-7-[2-(Benzyloxy)phenoxy]-2-heptanone] | 66% | 32.7 µM | 9 µM
O=C(CCCCOc1cccc(OCc2ccccc2)c1)C(F)(F)F [Compound 23.6, 1,1,1-Trifluoro-6-[3-(Benzyloxy)phenoxy]-2-hexanone] | 66% | 83.4 µM | 23.8 µM
O=C(CCCOc1cccc(OCc2ccccc2)c1)C(F)(F)F [Compound 23.5, 1,1,1-Trifluoro-5-[3-(Benzyloxy)phenoxy]-2-pentanone] | 69% | 51.6 µM | 14.2 µM
O=C(c1cccc(-c2cccc(OCc3ccccc3)c2)c1)C(F)(F)F [Compound 30] | 36% | 433 µM | 109 µM
O=C(CCCOc1ccc(OCc2ccccc2)cc1)C(F)(F)F [Compound 23.1, 1,1,1-Trifluoro-5-[4-(benzyloxy)phenoxy]-2-pentanone] | 65% | 103 µM | 28 µM

Results, then the compound that gave them:

inhibition [1] | IC50 [2] | Ki [2] | Structure (SMILES)
50% | 0.34 µM | 0.086 µM | Cc1nnc(C(=O)C(F)(F)c2ccc(-c3ccccc3)cc2)o1 [Compound 93.1, 2-(Biphenyl-4-yl)-2,2-difluoro-1-(5-methyl-1,3,4-oxadiazol-2-yl)ethanone]
42% | 130 µM | 26.4 µM | O=C(CCCCCCOc1ccc(O)cc1)C(F)(F)F [Compound 24.4, 1,1,1-Trifluoro-8-[4-(hydroxy)phenoxy]-2-octanone]
59% | 0.99 µM | 0.25 µM | O=C(c1ccccn1)C(F)(F)CCCCOc1ccccc1 [Compound 89.9, 2,2-Difluoro-6-phenoxy-1-(pyridin-2-yl)-hexan-1-one]
99% | 15.4 µM | 3.9 µM | O=C(Nc1ccc(Br)cc1)OC12CC3CC(CC(C3)C1)C2 [Compound 48.4]
73% | 0.215 µM | 0.054 µM | Cc1nnc(C(=O)C(F)(F)CCCCOc2ccccc2)o1 [Compound 89.12]
